Data taken from PubChem BioAssay AID493208 (National Center for Advancing Translational Sciences (NCATS), 2011).
Hit rate of the full screen: of about 44,000 compounds, about 340 (0.77%) were called active. Another 5% or so got no clear call; they are omitted. Calls follow the shape of the dose curve; as a rule, active = well fitted inhibition curve with a large enough effect; inconclusive = small, poorly fitted or top-dose-only effect; inactive = flat fitted curve, though single readings scatter. The list shows a part of the results.

Test: Acumen qHTS Assay for Inhibitors of the mTORC1 Signaling Pathway in MEF (Tsc2-/-, p53-/-) Cells: Sytravon;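 also: plate controls were DMSO for no effect and rapamycin for full effect; nearly all actives have a fitted effect of over 50% in size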
Conditions: phospho-rpS6 immunofluorescence/PI, 24 h; series mostly up to 38.3 µM; activity change, negative = inhibition: at the top concentration
Outline: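 Tsc2-/-, p53-/- MEFs (empty-vector stable line) in DMEM + 10% FBS were treated with compounds 24 h at 37 degree Celsius, fixed, and immunostained for phospho-rpS6 (Alexa-488) with propidium iodide counterstain. Laser-scanning cytometry gave % positive cells, normalized against 7.5 nM rapamycin and DMSO.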

Activity change, negative = inhibition, inactive:
Cc1ccc(NC(=O)COc2ccc3oc4c(c3c2)CCCC4)cc1C 0.0556%
Cc1ccc(CN2COc3c(Cl)cc4c(-c5ccccc5)cc(=O)oc4c3C2)cc1 -0.482%
O=C(CN1C(=O)COc2ccc(S(=O)(=O)N3CCOCC3)cc21)N1CCN(c2ccccc2F)CC1 0.0186%
Cc1ccc(NC(=O)C(=O)NCC2(c3ccccc3)CCCC2)cc1C -3.03%
CCc1cccc(NC(=O)c2c(C)oc3nc(C)nc(N4CCCC4)c23)c1 4.52%
CCCOc1ccc(CNC(=O)CN2C(=O)c3cccnc3Oc3ccc(C)cc32)cc1 -19.4%
O=C(NCCCO)c1nn(-c2ccc(Cl)cc2)nc1CO 2.74%
COC(=O)C1CCN(c2csc3ccc(Cl)cc3c2=O)CC1 -26.4%
CCc1ccc(OCc2cc(=O)n3cc(C)sc3n2)cc1 2.37%
CCOc1ccc2oc(=O)cc(CN3CCN(c4ccccc4OC)CC3)c2c1 -1.12%
COc1cc(OC)c(OC)cc1CNCCCSc1nnnn1C -1.06%
COc1cccc(NC(=O)Cn2c(=O)n(CCc3ccc(OC)c(OC)c3)c(=O)c3ccccc32)c1 0.152%
COc1ccc(C(=O)N(Cc2cc(OC)c(OC)c(OC)c2)C2CCS(=O)(=O)C2)cc1Cl (configuration not stated) -2.54%
CCc1ccc(NCc2cc3ccc(OC)cc3n(CC(=O)Nc3ccc(C)c(Cl)c3)c2=O)cc1 -3.34%
Cc1ccc(C(=O)c2oc3ccccc3c2NC(=O)Cc2ccccc2)cc1 0.0162%
Cn1cc(S(=O)(=O)N2CCOCC2)cc1C(=O)Nc1cccc(C#N)c1 -1.13%
CC(C)Oc1ccc(CNC(=O)Cn2nc(N3CCN(c4ccccc4)CC3)ccc2=O)cc1 0%
CCC(=O)N1CCc2cc(OC)c(OC)cc2C1COc1ccc2c(C)cc(=O)oc2c1 (configuration not stated) 1.87%
COc1ccc(C2c3c(n(C)c4ccccc34)C(=O)N2CC(=O)Nc2ccc(F)cc2)cc1 (configuration not stated) -7.12%
COCCNC(=O)C1=CC(c2ccc3c(c2)OCO3)=NS(=O)(=O)N1C 1.96%
CC(C)c1ccc(CNc2n[nH]c(-c3ccco3)n2)cc1 -0.506%
Cc1ccc(CSc2nc(-c3ccccc3C)nc3c2Cc2c(CO)cnc(C)c2O3)cc1 2.37%
COc1ccc(-c2ccc(=O)n(CC(=O)Nc3ccc(OC)c(OC)c3)n2)cc1 -8.98%
CCOc1ccc(-c2nc(SCC(=O)Nc3cc(F)ccc3F)n3[nH]c(=O)cc3n2)cc1 6.33%
Cn1ncc2c(NCc3ccc(F)cc3)ncnc21 -1.25%
CCOC(=O)c1c(S(=O)(=O)N2CCC(C(=O)N3CCN(c4ccc(F)cc4)CC3)CC2)c(C)n(C)c1C -0.0823%
CCn1nnc2cc(C(=O)Nc3ccc(Br)cc3F)ccc21 -11.1%
Cn1c(=O)c2c(SCC(=O)N3CCc4ccccc43)nc(-c3ccc(Cl)cc3)nc2n(C)c1=O -5.18%
Cc1ccc(NC(=O)C2CCCN2S(=O)(=O)c2ccc3c(c2)n(C)c(=O)c(=O)n3C)cc1C (configuration not stated) -18.3%
O=C1N(Cc2ccccc2)c2ccccc2C1(O)c1c[nH]c2ccccc12 (configuration not stated) 5.28%
O=C(Nc1ccc(C(F)(F)F)cc1)C(Cc1ccccc1)n1cccc1 (configuration not stated) -10%
O=C(NCCCN1CCN(c2ccccc2F)CC1)c1ccc2nc(N3CCCCC3)sc2c1 2.84%
CC(=O)Nc1cccc(C(=O)NCc2ccc3c(c2)CCN3C(=O)c2ccc(F)cc2)c1 -0.996%
CCN(C(=O)C1CCCN(c2ncnc3c2nc2n3CCCCC2)C1)c1cccc(Cl)c1 (configuration not stated) -7.9%
Cc1cc2c(cc3c(SCc4ccccc4Cl)nnc(C)n32)o1 5.67%
COc1cccc(NS(=O)(=O)c2ccc3[nH]cc(C(=O)N4CCCC4)c(=O)c3c2)c1 -0.0737%
Cc1c(CCNC(=O)C(C)(C)C)sc2nc(-c3ccc(F)cc3)nn12 -1.93%
COc1ccccc1NC(=O)C1=C(C)Nc2nc(SCc3ccccc3)nn2C1c1ccncc1 (configuration not stated) -36.4%
COc1cc(OC)c(N(C)C(=O)c2sc3nc4n(c(=O)c3c2C)CCCCC4)cc1Cl -0.0225%
Cc1cc(Nc2cc(F)ccc2C)nc(-n2nc(C)cc2C)n1 -17%
COc1cc(NC(=O)Cn2nc3c(cc2=O)CC(C)CC3)cc(OC)c1OC (configuration not stated) 2.44%
CC(C)N(Cc1ccccc1)C(=O)CN1C(=O)CSc2ccc(S(=O)(=O)N3CCCC3)cc21 2.37%
Cc1c(C(=O)N2CCC(C)CC2)c(S(=O)(=O)Nc2ccc(OC(F)(F)F)cc2)c(C)n1C 0%
CN(C)S(=O)(=O)N(CC(=O)NCCSc1ccccc1)c1ccccc1 2.23%
CCn1cc(C(=O)N2CCN(c3ccc(OC)cc3)CC2)c(=O)c2cc(S(=O)(=O)N3CCOCC3)ccc21 -5.36%
COc1ccc(OCC(=O)Nc2ccc(-c3nc4cc(C)c(C)cc4o3)cc2)cc1 -1.44%
COc1ccc2[nH]cc(CCN=C(NC(=O)c3ccccc3C)Nc3nc(C)cc(C)n3)c2c1 1.22%
O=C(Cn1ncc2c3ccccc3n(Cc3ccc(F)cc3)c2c1=O)NCCCN1CCCCC1 -7.53%
N#Cc1c[nH]n2c(NC3CCCC3)c(-c3ccc(Cl)cc3)nc12 -11.7%
CCc1ccc(NC(=O)C(=O)NCCc2sc3nc(-c4ccc(OC)cc4)nn3c2C)cc1 0.358%
Cc1ccc(CNc2nc3ccc(C)cc3n3nnnc23)cc1 -3.05%
O=C(CCS(=O)(=O)c1cccc2nonc12)Nc1ccc(Br)cc1 -5.52%
Cc1ccc(NS(=O)(=O)c2ccc(-c3cc(C)no3)cc2)c(Br)c1 -5.77%
CCOc1ccccc1NC(=O)N1CCC2(CC1)Oc1ccccc1C(=O)N2Cc1ccccc1F -15%
CC1=C(C(=O)Nc2ccccc2)C(c2ccc(O)cc2)n2nc(SCc3ccccc3)nc2N1 (configuration not stated) 2.78%
COc1ccc(Cl)cc1NC(=O)CCn1c(=O)oc2ccccc21 2.51%
O=c1[nH]c(SCc2ccc([N+](=O)[O-])cc2)nc2c1CCCC2 0.801%
Cc1ccccc1NC(=O)CSc1ccc(-c2cccs2)nn1 -4.48%
COc1ccc(NC(=O)Nc2nnc(N(CC(C)C)CC(C)C)s2)c(OC)c1 1.42%
CCN(C(=O)c1cc2c(s1)-c1ccccc1OC2)c1cccc(C(F)(F)F)c1 -8.68%
COc1ccc(NC(=O)c2cc(C3CC3)nc3c2c(C)nn3-c2ccccc2)cc1OC 0.438%
O=C(CSc1nccn1Cc1ccccc1)Nc1ccc2c(c1)OCCO2 -3.83%
